PubChem BioAssay AID624417 (National Center for Advancing Translational Sciences (NCATS), 2012)
The campaign covered roughly 410,000 compounds. About 6,400 (1.6%) were called active. The shares of active, inactive and inconclusive entries below differ from those in the screen. Calls follow the shape of the dose curve; as a rule, active = well fitted inhibition curve with a large enough effect; inconclusive = small, poorly fitted or top-dose-only effect; inactive = no such curve, though single readings can be large or run the other way. Potencies of inconclusive entries are doubtful fits and often do not repeat.

Biological target: Glucagon-like peptide 1 receptor (Homo sapiens) (UniProt P43220)
Assay: qHTS of GLP-1 Receptor Inverse Agonists (Inhibition Mode); also: nearly all actives have a fitted effect of over 55% in size
Conditions: HEK293 GLP-1R CRE-luciferase, luminescence, 24 h, GLP-1R form is constitutively active; activity change, negative = inhibition: at 38.3 µM (top of the series) unless noted
Summary of the method: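 Using stably transfected HEK293 (constitutively active GLP-1R, cAMP-luciferase reporter), compounds were incubated 24 hr and luciferase measured by luminescence.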
% is scaled to controls: 0 for no effect and ±100 for the full control effect; potency is read from the fitted curve at half-maximal effect; tags tell the direction and shape of the fitted curve.

Chain of UniProt P43220 (P43220 whole entry, looked up): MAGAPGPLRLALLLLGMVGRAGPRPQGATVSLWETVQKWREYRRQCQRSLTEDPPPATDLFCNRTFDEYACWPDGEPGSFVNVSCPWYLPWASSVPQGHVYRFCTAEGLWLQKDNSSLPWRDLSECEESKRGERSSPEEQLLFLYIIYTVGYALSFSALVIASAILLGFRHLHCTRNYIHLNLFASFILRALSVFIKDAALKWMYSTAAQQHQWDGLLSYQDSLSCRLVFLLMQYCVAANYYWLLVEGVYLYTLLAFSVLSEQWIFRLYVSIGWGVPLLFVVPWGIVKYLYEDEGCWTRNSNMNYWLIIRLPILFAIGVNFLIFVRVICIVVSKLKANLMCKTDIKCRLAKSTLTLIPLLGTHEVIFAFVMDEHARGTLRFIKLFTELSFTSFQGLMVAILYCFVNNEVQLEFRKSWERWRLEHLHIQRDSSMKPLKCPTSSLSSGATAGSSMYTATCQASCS

Potency, inconclusive:
O=C(NC1CCN(S(=O)(=O)c2ccc(Cl)c(F)c2)CC1)c1cccnc1 7.08 µM [inhibitor, partial curve, poor fit]
CCN(CC(=O)Nc1cccc(S(=O)(=O)N(C)c2ccccc2)c1)Cc1cccs1 14.1 µM [inhibitor, partial curve, poor fit]
CCCc1c(-c2ccc(F)cc2)ncn1CCc1ccccc1OC 15.8 µM [inhibitor, single point]
Cc1cccc(C)c1NC(=O)C1=C(O)c2sccc2N(C)S1(=O)=O 11.2 µM [inhibitor, partial curve, poor fit]
COc1ccc(-c2cc(CCC(=O)N3CCN(c4cc(C)ccc4C)CC3)on2)cc1 22.4 µM [inhibitor, single point]
COCCCNC(=O)Cc1c(C)c2cc3c(cc2oc1=O)OC(C)(C)CC3 10 µM [inhibitor, partial curve, poor fit]
Cc1ccc(-n2ncc(C(=O)NCc3cccs3)c2C2CCN(C(=O)OC(C)(C)C)CC2)cc1 28.2 µM [inhibitor, single point]
CCOc1cc(/C=C/c2cccc[n+]2C)ccc1OCC(=O)Nc1ccc(C)cc1 31.6 µM [inhibitor, single point]
C=C1c2ccccc2O[C@H](C(=O)OCC)[C@@H]1C1CCCCC1 11.2 µM [inhibitor, single point]
O=C(N/N=C/c1cccc(O)c1)c1ccc(COc2ccc3c(c2)CCC3)o1 28.2 µM [inhibitor, single point]
O=c1c2ccccc2cnn1-c1ccc(Br)cc1 14.1 µM [inhibitor, single point]
COc1cccc(CC2(CO)CCCN(Cc3[nH]c4ccc(C)cc4c3C)C2)c1 (stereo not given) 11.2 µM [inhibitor, partial curve, poor fit]
CCCN1CCN(C(=O)c2cc3c(s2)-c2ccccc2OC3)CC1 10 µM [inhibitor, partial curve, poor fit]
Cc1ccc2[nH]c(=O)c3cc(C(=O)NCCC(C)C)sc3c2c1 12.6 µM [inhibitor, single point]
CC1(C2CCC3C4CCC5CC6(CCC5(C)C4C(=O)CC32C)OCCO6)OCCO1 (stereo not given) 28.2 µM [inhibitor, single point]
NS(=O)(=O)c1ccc(N2N=C(c3ccccc3)CC2c2cccc(Cl)c2)cc1 (stereo not given) 28.2 µM [inhibitor, single point]
Cc1cccc(N2CCN(C(=O)C3CCCN(S(=O)(=O)c4ccc5c(c4)oc(=O)n5C)C3)CC2)c1C (stereo not given) 28.2 µM [inhibitor, single point]
Cc1ccc(CN2CCN(/N=C/c3ccc(C)s3)CC2)cc1 2.24 µM [inhibitor, single point]
CCc1ccc(C(=O)c2cnc3ccc(F)cc3c2S(=O)(=O)c2ccccc2)cc1 12.6 µM [inhibitor, partial curve, poor fit]
CCn1ccc2cc(S(=O)(=O)N3CCC(C(=O)NCCc4ccccc4Cl)CC3)ccc21 28.2 µM [inhibitor, single point]
CC1CN(CCCOc2ccccc2-c2ccccc2)CC(C)O1 (stereo not given) 7.94 µM [inhibitor, partial curve, poor fit]
CC1Cc2cc(S(=O)(=O)NCCc3ccc(Cl)cc3)ccc2N1C(=O)C1CCC1 (stereo not given) 11.2 µM [inhibitor, partial curve, poor fit]
O=c1cc(C(F)(F)F)[nH]c2ccc(C(F)(F)F)cc12 28.2 µM [inhibitor, single point]
CC(C)(C)OC(=O)N(Cc1ccccc1)Cc1ccc(OCc2cccc(NC(=O)c3ccccc3)c2)cc1 7.08 µM [inhibitor, partial curve, poor fit]
Cc1ccc(CNC(=O)c2ccc3c(c2)c(C)c(C)n3Cc2ccccc2)o1 28.2 µM [inhibitor, single point]
CCOC(=O)C1=C(N)Oc2cc(O)ccc2C1c1ccc(F)cc1F (stereo not given) 10 µM [inhibitor, single point]
CCn1c(NCc2cc(Cl)ccc2O)nc2ccccc21 10 µM [inhibitor, single point]
CN(C)CCCNc1oc(-c2ccccc2Cl)nc1S(=O)(=O)c1ccc(F)cc1 10 µM [inhibitor, partial curve]
CCC(C(=O)OCC(=O)N1CCN(S(=O)(=O)c2ccc(C)cc2C)CC1)c1ccccc1 (stereo not given) 11.2 µM [inhibitor, partial curve, poor fit]
COc1ccc(NC(=O)CN(C)C(=O)c2cc(-c3ccc(C)o3)nc3ccccc23)cc1 28.2 µM [inhibitor, single point]
CCN1CCN(c2nnc(-c3ccc(C)cc3)c3ccccc23)CC1 31.6 µM [inhibitor, partial curve, poor fit]
ON=C1c2ccccc2-c2cc(Br)ccc21 31.6 µM [inhibitor, partial curve, poor fit]

Activity change, negative = inhibition, inactive:
COC(=O)/C=C1/S/C(=N/NC(=O)c2ccccc2)NC1=O 14.6%
COc1ccc2c(c1OC)C(=O)N(c1ccc(F)cc1)C2 1.29%
CCc1cccc2c(-c3ccccc3)nc(SCC(=O)Nc3ccccc3OC)nc12 -0.744%
CCOc1ccccc1C(=O)N(C)Cc1cc2cc(OC)ccc2[nH]c1=O 38.2%
COc1ccc(NC(=O)c2ccc(S(=O)(=O)N3CCOCC3)o2)cc1 -20.6%
CC(C)OCCCNC(=O)c1cn(C)c2ccc(S(=O)(=O)N3CCCCCC3)cc2c1=O 9.93%
NS(=O)(=O)c1ccc(NC(=O)c2ccc(-c3ccccc3)cc2)cc1 2.51%
O=C(Nc1cc(S(=O)(=O)N2CCOCC2)ccc1O)c1ccc(S(=O)(=O)N2CCCCC2)cc1 -25%
